“And” between values parts separate entries of the source, which are not always exact repeats. Equal values may be shown once. Inconclusive results, whose numbers are uncertain, are shown with a selection of clear calls. For some assays here: A potency beside an inconclusive call is a rough fit, not a confirmed value. The source holds several records for some structures; these can differ, active in one and inactive in another. The source made the active and inactive calls. Calls follow the shape of the dose curve; as a rule, active = well fitted curve in the direction sought with a large enough effect; inconclusive = small, poorly fitted or top-dose-only effect, or another doubt; inactive = no such curve, though single readings can be large; an effect the other way counts as inactive or inconclusive.
Experiments:
[1] = NS1 protein of Zika virus - qHTS assay to identify small molecule inhibitors in human HEK 293 cells (AID 1347053); also: nearly all actives have a fitted effect of over 55% in size
Summary of the method: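 Read-out is a two-antibody TR-FRET for ZIKV NS1, normalized between uninfected cells and infected cells. Compound added 1 h before MR766 infection at MOI 0.5; human HEK 293 cells incubated 24 h, 37 C.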

[2] = qHTS of pediatric cancer cell lines to identify multiple opportunities for drug repurposing: Primary screen for DAOY cells (AID 1347090); conditions: DAOY medulloblastoma viability, CellTiter-Glo luminescence, 48 h; activity change, negative = cytotoxic: at 46 µM (top of the series); also: nearly all actives have a fitted effect of over 55% in size
Summary of the method: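 Eight- or eleven-point concentration series, 48 h treatment at 37 degrees C in growth media; readout CellTiter-Glo luminescence. Potency and efficacy were taken from the concentration-response curves.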

[3] = qHTS of pediatric cancer cell lines to identify multiple opportunities for drug repurposing: Primary screen for BT-37 cells (AID 1347094)
Summary of the method: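 Following a 5-hour attachment period, cells at 500-1,000/well received compounds and were cultured for 48 hours. CellTiter-Glo was added and luminescence read to estimate viable, metabolically active cells.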

[4] = qHTS of pediatric cancer cell lines to identify multiple opportunities for drug repurposing: Primary screen for U-2 OS cells (AID 1347096); also: nearly all actives have a fitted effect of over 50% in size
Summary of the method: (§1)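 Cells (500-1,000/well) in growth media were settled 5 h at 37 degrees C, then given compounds for 48 h. Viability was read as CellTiter-Glo luminescence. Primary runs used MIPE at 11 points (0.78 nM-46 µM) and NPC at 8 points (0.59 nM-46 µM); follow-ups used 11 points.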

[5] = Quantitative High-Throughput drug screen in 47 multiple myeloma cell lines against the NCATS MIPE library collection: Karpas417_ECACC cell viability assay (AID 1918961); conditions: Karpas417 myeloma viability, CellTiter-Glo ATP luminescence, 48 h; series mostly up to 45.8 µM
Summary of the method: (§2)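 Relative luminescence from CellTiter-Glo served as the viability signal, referenced to DMSO-treated (100%) and cell-free medium (0%) controls. Treatment lasted 48 hours at 37C with 500 cells per well.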

[6] = Quantitative High-Throughput drug screen in 47 multiple myeloma cell lines against the NCATS MIPE library collection: KHM11_PLB cell viability assay (AID 1918962); conditions: KHM11 myeloma cell viability, CellTiter-Glo ATP luminescence, 48 h; series mostly up to 45.8 µM; also: nearly all actives have a fitted effect of over 35% in size
Summary of the method: as §2

[7] = Quantitative High-Throughput drug screen in 47 multiple myeloma cell lines against the NCATS MIPE library collection: OCIMY1_PLB cell viability assay (AID 1918979); also: nearly all actives have a fitted effect of over 35% in size
Summary of the method: (§3)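 Readout: median RLU from CellTiter-Glo after 5 min at room temperature. Preceding step was 48 h drug treatment of 500 cells/well at 37 °C, 5% CO2, with DMSO-only and media-only control wells.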

[8] = Quantitative High-Throughput drug screen in 47 multiple myeloma cell lines against the NCATS MIPE library collection: KMS34_JCRB cell viability assay (AID 1918985); also: nearly all actives have a fitted effect of over 40% in size
Summary of the method: as §3

HaCat = assay: Cytotoxic Profiling of Annotated Libraries Using Quantitative High-Throughput Screening (AID 1296008); conditions: Five cell lines viability, CellTiter-Glo ATP luminescence, 48-72 h; max response: stronger effect = lower value; also: nearly all actives have a fitted effect of over 60% in size
Summary of the method: (§4)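 Compounds were pin-transferred onto cells and incubated 48 or 72 hr at 37 degree Celsius, 95% humidity. CellTiter-Glo was added, plates sat 10 min at room temperature, then ATP-coupled luminescence was imaged as the viability read-out.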

KB-3-1 = assay: as above; conditions: Five cell lines viability, CellTiter-Glo ATP luminescence, 48-72 h; max response: stronger effect = lower value
Summary of the method: as §4

NIH3T3 = assay: as above; conditions: Five cell lines viability, CellTiter-Glo ATP luminescence, 48-72 h; max response: stronger effect = lower value
Summary of the method: as §4

MKL-1 = assay: qHTS assay to identify novel small-molecules to repurpose for Merkel cell carcinoma treatment (AID 1296009); conditions: MCC and control cell lines, CellTiter-Glo viability, 72 h; activity change, negative = cytotoxicity: at 46 µM (top of the series); also: nearly all actives have a fitted effect of over 60% in size
Summary of the method: (§5)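 Luminescence from CellTiter-Glo, read 10 min after addition at room temperature, reported viability following a 72 hr, 37 degree celsius treatment with NPC or MIPE compounds in titration; values normalized to plate controls.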

MKL-2 = assay: as above; conditions: MCC and control cell lines, CellTiter-Glo viability, 72 h; activity change, negative = cytotoxicity: at 46 µM (top of the series)
Summary of the method: as §5

UISO = assay: as above; conditions: MCC and control cell lines, CellTiter-Glo viability, 72 h; activity change, negative = cytotoxicity: at 46 µM (top of the series)
Summary of the method: as §5

WaGa = assay: as above; conditions: MCC and control cell lines, CellTiter-Glo viability, 72 h; series mostly up to 46 µM
Summary of the method: as §5

SKOV3 = assay: Primary qHTS to identify gynecologic anti-cancer compounds using libraries of approved drugs and bioactive compounds (AID 1345084); conditions: Gynecologic cancer cell panel viability, ATPlite luminescence, 48 h; series mostly up to 57.5 µM; also: nearly all actives have a fitted effect of over 55% in size
Summary of the method: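 Cells, 1,000 per well, were allowed to settle for 16 h at 37 C before compound addition. Five concentrations were tested for 48 h, and viability was read by ATPlite luminescence after 15 min at room temperature.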

[9] = qHTS of pediatric cancer cell lines to identify multiple opportunities for drug repurposing: Primary screen for LAN-5 cells (AID 1347100)
Summary of the method: as §1

[10] = Quantitative High-Throughput drug screen in 47 multiple myeloma cell lines against the NCATS MIPE library collection: UTMC2_PLB cell viability assay (AID 1919868); conditions: CellTiter-Glo ATP luminescence, 48 h; series mostly up to 45.8 µM; also: nearly all actives have a fitted effect of over 55% in size
Summary of the method: as §3

[11] = Quantitative High-Throughput drug screen in 47 multiple myeloma cell lines against the NCATS MIPE library collection: SKMM1_PLB cell viability assay (AID 1919863); conditions: SKMM1 myeloma viability, CellTiter-Glo ATP, 48 h; viability: stronger effect = lower value; also: nearly all actives have a fitted effect of over 35% in size
Summary of the method: as §3

MCC-13 = assay: qHTS assay to identify novel small-molecules to repurpose for Merkel cell carcinoma treatment (AID 1296009); conditions: MCC and control cell lines, CellTiter-Glo viability, 72 h; series mostly up to 46 µM; also: nearly all actives have a fitted effect of over 60% in size
Summary of the method: as §5
Potency is read from the fitted curve at half-maximal effect; tags tell the direction and shape of the fitted curve.

SMILES | Potency [1] | Potency [2] | Potency [3] | Potency [4] | Potency [5] | Potency [6] | Potency [7] | Potency [8] | Potency (HaCat) | Potency (KB-3-1) | Potency (NIH3T3) | Potency (MKL-1) | Potency (MKL-2) | Potency (UISO) | Potency (WaGa) | Potency (SKOV3) | Potency [9] | Potency [10] | Potency [11] | Potency (MCC-13)
CS(=O)(=O)c1cccc(CNc2nc(Nc3ccc4c(c3)CCC(=O)N4)ncc2C(F)(F)F)c1 | inconclusive: 37.2 µM [inhibitor, single point] | inconclusive: 23.5 µM [cytotoxic, partial curve] | active: 27.3 µM | active: 18.7 µM | active: 2.64 µM | active: 14.8 µM | active: 16.6 µM | inconclusive: 14.8 µM [cytotoxic, partial curve, poor fit] | inconclusive: 13.2 µM [inhibitor, partial curve] | active: 18.7 µM and inconclusive: 23.1 µM [inhibitor, single point] | inconclusive: 2.35 µM [inhibitor, full curve] and active: 8.2 µM | inconclusive: 29.6 µM [inhibitor, single point] | inactive | inconclusive: 7.43 µM [inhibitor, full curve] | active: 16.6 µM | inconclusive: 25.1 µM [cytotoxic, partial curve, poor fit] |  |  |  | 
NC1(c2ccc(-c3nc4ccn5c(=O)[nH]nc5c4cc3-c3ccccc3)cc2)CCC1 | active: 9.35 µM and inconclusive: 35.5 µM [inhibitor, single point] | active: 18.7 µM and inconclusive: 8.41 µM [cytotoxic, partial curve] | inconclusive: 27.6 µM [cytotoxic, single point] | inconclusive: 8.41 µM [cytotoxic, partial curve, poor fit] | inconclusive: 33.2 µM [rising, partial curve, poor fit] | active: 5.9 µM | inconclusive: 0.469 µM [cytotoxic, full curve, poor fit] | active: 9.35 µM | inconclusive: 841 nM [inhibitor, full curve, poor fit] and active: 25.9 µM | inconclusive: 20.9 µM [inhibitor, single point] and active: 16.4 µM | inconclusive: 29.9 µM [inhibitor, single point] and inconclusive: 23.1 µM [inhibitor, single point] |  | active: 13.3 µM | inconclusive: 11.9 µM [inhibitor, partial curve] | active: 16.6 µM and active: 26.6 µM | inconclusive: 17.8 µM [cytotoxic, partial curve, poor fit] and active: 11.2 µM | inconclusive: 29.9 µM [cytotoxic, single point] | active: 1.18 µM |  | 
O=C(C=Cc1cccc(S(=O)(=O)Nc2ccccc2)c1)NO | inconclusive: 17.1 µM [inhibitor, full curve] |  |  |  | active: 1.08 µM |  |  | active: 1.36 µM | active: 15.2 µM | active: 6.05 µM | active: 10.8 µM |  | active: 3.4 µM |  | active: 3.03 µM |  | active: 1.21 µM |  |  | 
C[C@@]12O[C@@H](C[C@]1(O)CO)n1c3ccccc3c3c4c(c5c6ccccc6n2c5c31)CNC4=O | active: 2.64 µM |  | active: 4.85 µM | inconclusive: 0.469 µM [cytotoxic, full curve, poor fit] | inconclusive: 33.2 µM [rising, partial curve, poor fit] |  | active: 2.35 µM |  | inconclusive: 16.6 µM [inhibitor, partial curve] |  |  | active: 1.48 µM |  | active: 1.66 µM |  |  | active: 0.132 µM |  | active: 5.26 µM | inconclusive: 2.96 µM [inhibitor, full curve]
COc1ccc(C2=N[C@H](c3ccc(Cl)cc3)[C@H](c3ccc(Cl)cc3)N2C(=O)N2CCNC(=O)C2)c(OC(C)C)c1 | inconclusive: 37.2 µM [inhibitor, single point] | active: 23.5 µM |  | inconclusive: 18.7 µM [cytotoxic, single point] | inconclusive: 37.2 µM [rising, single point] | inconclusive: 33.2 µM [cytotoxic, single point] |  | inconclusive: 16.6 µM [cytotoxic, partial curve] |  | inconclusive: 37.2 µM [inhibitor, partial curve, poor fit] | inconclusive: 8.33 µM [inhibitor, partial curve] | active: 9.35 µM | inconclusive: 1.18 µM [inhibitor, full curve] | inconclusive: 3.32 µM [inhibitor, full curve] |  |  | active: 2.35 µM | inconclusive: 18.7 µM [cytotoxic, partial curve, poor fit] | active: 5.9 µM | 
CC(NCc1ccc2c(c1)nc(NC(=O)c1ccc(-c3cn[nH]c3)s1)n2CC(C)(C)O)C(C)(C)C (configuration not stated) | active: 4.69 µM |  |  | active: 1.18 µM |  | active: 0.0935 µM |  | active: 0.372 µM |  | active: 0.209 µM |  |  | inconclusive: 0.526 µM [inhibitor, full curve] | active: 1.32 µM |  |  | active: 0.132 µM | active: 0.105 µM |  | active: 2.35 µM
